The source gives no read counts; variants with many changes may rest on few reads.

B1: LINE1-mini (parent)
chain: GGCAGAGCUCAACACAGCGUGGCAAAGUGGCUGUGGCUAGACUGCC

Variants of B1 are the subject of this data set. Briefly: self-cleavage, relative activity (ratio to wild type); higher = more cleavage; in vitro, sequencing; the parent is a self-cleaving ribozyme.
In the case of GGCAGAGCUUAACACAGCCUGGCAAAGUGGCUGUGGCUAGAUUGCC [C10U G19C C42U], the self-cleavage is 0.01.

Take GGCAGAGCUUAACACAACGUGGCAAAGUGGAUGUGCCUAGACUGCC [C10U G17A C31A G36C]: the self-cleavage is 0.02.

Turning to GGCAGAGCUUAACACAGCUUGGCAAAGUGGCUGCGGCUAGACUGCC [C10U G19U U34C], the self-cleavage amounted to 0.24.

Turning to GGCAGAGCUUAACACAGCGUGGCAAACUGGCUGUGGCUAGAAAGCC [C10U G27C C42A U43A], the self-cleavage was 0.05.

With GGCAGAGCUUAACACAGUGUGGAAAAGUGGCUGUGGCUAGACUGCC [C10U C18U C23A], the self-cleavage was 0.4.

For the variant GGCAGAGCUUAACACAGCGUGGCAAAUUAGCUGUGUCUAGACUGCC [C10U G27U G29A G36U], the self-cleavage worked out at 0.01.

Consider GGCAGAGCUUAACACAGCGUGGCAAACUGGCAGUGGCUAGACUGCC [C10U G27C U32A], for which the self-cleavage worked out at 0.05.

With GGCAGAGCUUAACACAACGUGGCAACGUGGCUGUGGCCAGACUGCC [C10U G17A A26C U38C], the self-cleavage was found to be 0.04.

Turning to GGCAGAGCUUAACACAACGGGGCAAAGUGACUGUGCCUAUACCGCC [C10U G17A U20G G30A G36C G40U U43C], the self-cleavage stood at 0.02.

With GGCAGAGCUUAACACAGAUUGGCAAAGUGGCUGUGCCUAGACUGCC [C10U C18A G19U G36C], the self-cleavage came out at 0.01.

GGCAGAGCUUAACACAGCGUGGCAAAGUGACUAUGGCUAGACUGCC [C10U G30A G33A]: the self-cleavage was 0.02.

On to GGCAGAGCUUAACAUAGCGUGCCAAAGUGGCUGUGGCUAGACUGCC [C10U C15U G22C], for which the self-cleavage stood at 0.12.

Turning to GGCAGAGCUUAACACAGGGUGGCAAAGUGGCUGUGGGUCGACUGCC [C10U C18G C37G A39C], the self-cleavage amounted to 0.06.

Take GGCAGAGCUUAACACACCGUGGCAAAGUGGCUGUGGCUAGAGUGCU [C10U G17C C42G C46U]: the self-cleavage amounted to 0.

As to GGCAGAGCUUAACACAGCGUGGUAAAGUGUCUGUGGCUAGACUGCC [C10U C23U G30U], the self-cleavage was 0.29.

Turning to GGCAGAGCUUAACACAGCGUAGCAAAGUGGCUGAGGCUAGACUGUC [C10U G21A U34A C45U], the self-cleavage was 0.08.

In the case of GGCAGAGCUUAACACAGUGUGGCAAAGUGGCUGUGGCUAGACUACC [C10U C18U G44A], the self-cleavage was determined as 0.34.

GGCAGAGCUUAACACAGCAUGGCAAAUUGGCUGUGGCUAGACUGCC [C10U G19A G27U]: the self-cleavage worked out at 0.13.

Consider GGCAGAGCUUAACACAGCGUGGAAAAGUGGGUGUGGCUACACCGCC [C10U C23A C31G G40C U43C], for which the self-cleavage worked out at 0.02.

For the variant GGCAGAGCUUAACACAGCUUGGCAAAGUGGCUAUGGCUAGACUGCC [C10U G19U G33A], the self-cleavage is 0.02.

Consider GGCAGAGCUUAACACAGCCUGGCAAAGUGGCUGGGGCUAGACUGCC [C10U G19C U34G], for which the self-cleavage was 0.13.

Regarding GGCAGAGCUUAACACAGCGUCGCAAAGUAGCUUUGGCUCGACUGCC [C10U G21C G29A G33U A39C], the self-cleavage came out at 0.01.

Turning to GGCAGAGCUUAACACAGCAUGGCAACGUGGCUGUGGCUAGACUGCC [C10U G19A A26C], the self-cleavage was 0.05.

On to GGCAGAGCUUAACACAGCGUGGCAAAGUGAAUGUGGCUAGACUGCC [C10U G30A C31A], for which the self-cleavage is 0.18.

On to GGCAGAGCUUAACACAGCGUCGCAAAUUGGCUGUGGCUUGACUGCC [C10U G21C G27U A39U], for which the self-cleavage turned out to be 0.33.

For GGCAGAGCUUAACACAGCGUGGCAAAUUGGCUGUGACUAGACUGCC [C10U G27U G36A], the self-cleavage came to 0.05.

Consider GGCAGAGCUUAACACAUCGGUGCAAAGUGGCUCUGGCUAGACUGCC [C10U G17U U20G G21U G33C], for which the self-cleavage was found to be 0.02.

Consider GGCAGAGCUUAACACAGCGUCGCAGAGUGGCUGUGGCUAGACAGCC [C10U G21C A25G U43A], for which the self-cleavage worked out at 0.02.

Take GGCAGAGCUUAACACAGCGUGGCAAACUGGCUGAGGCUAGACAGCC [C10U G27C U34A U43A]: the self-cleavage is 0.03.

As to GGCAGAGCUUAACACAGCAUGGCAAAUUGGCUGUGGAUUUACUGCC [C10U G19A G27U C37A A39U G40U], the self-cleavage was found to be 0.02.

For GGCAGAGCUUAACACAGCGUGGCAAAGUCGCUGUAGCUAGACUGCC [C10U G29C G35A], the self-cleavage worked out at 0.06.

As to GGCAGAGCUUAACACAGCGUGGCAAAGUGCCUGUAGCUAGACUGCC [C10U G30C G35A], the self-cleavage was 0.09.

As to GGCAGAGCUUAACACAGCGUGGCAAAUUGGCUGUGGCUAGACCGCC [C10U G27U U43C], the self-cleavage turned out to be 0.05.

For the variant GGCAGAGCUUAACACAACGUGGCAAAGUGGCUGUGACUAGAGUGCC [C10U G17A G36A C42G], the self-cleavage stood at 0.03.

On to GGCAGAGCUUAACACAGCGUGGAAACGUGGCUGUGGCUAGACUGCC [C10U C23A A26C], for which the self-cleavage is 0.19.

For the variant GGCAGAGCUUAACACACCGUGGCAAAGUGGCUGUCGCUAGACUCCC [C10U G17C G35C G44C], the self-cleavage stood at 0.02.

For GGCAGAGCUUAACACAGCGUGGCAAAGUGGCUAUGGCUCGACAGCC [C10U G33A A39C U43A], the self-cleavage was 0.04.

Regarding GGCAGAGCUUAACACAGCGUGCCAAACUGGCUGUGGCUAGAGUGCC [C10U G22C G27C C42G], the self-cleavage was 0.01.

In the case of GGCAGAGCUUAACACAGAAUGGCAAAGUGGGUGUGGCUAGACAGCC [C10U C18A G19A C31G U43A], the self-cleavage came out at 0.08.

For the variant GGCAGAGCUUAACACAGCGUGACAAAGUGGCUGUGGCUAGACUCCC [C10U G22A G44C], the self-cleavage was 0.26.

With GGCAGAGCUUAACACAGUGUGGCAAAGUGACUGUGGCUAGACUGCC [C10U C18U G30A], the self-cleavage is 1.09.

Regarding GGCAGAGCUUAACACAGCGUGGCAAAGUUGCGGUGGCUAGACCGCC [C10U G29U U32G U43C], the self-cleavage came out at 0.06.

As to GGCAGAGCUUAACACAGCGUGGCAAAGUGGCUGUGGCUAGAAUGGC [C10U C42A C45G], the self-cleavage was determined as 0.

For the variant GGCAGAGCUUAACACAGCUUGGCAAAGAGGCUGUGGCUAGACUGCC [C10U G19U U28A], the self-cleavage was found to be 0.27.

For the variant GGCAGAGCUUAACACAGCGUGCCAAAGUGGCUGUGGCUAGACUUCC [C10U G22C G44U], the self-cleavage was found to be 0.11.

For GGCAGAGCUUAACAUAUCGUGGCAAAGUGCCUGUGGCUAGACUGUC [C10U C15U G17U G30C C45U], the self-cleavage came to 0.06.

GGCAGAGCUUAACACAGCGUGGCAAAGUUGCCGUGGCUAGAAUGCC [C10U G29U U32C C42A]: the self-cleavage is 0.02.

For the variant GGCAGAGCUUAACACAGCGUUGCAAAGUGGCUGUGGCUAAACUUCC [C10U G21U G40A G44U], the self-cleavage was found to be 0.02.

With GGCAGAGCUUAACACAGCGUGUAAAAGUGGCUGUGGCUAGACUGCC [C10U G22U C23A], the self-cleavage worked out at 0.11.

For the variant GGCAGAGCUUAACACAGCGUGGCAAAUUGGCUGUGGCUAGAGUGCC [C10U G27U C42G], the self-cleavage turned out to be 0.07.

In the case of GGCAGAGCUUAACACAUCGUGGCAAAGUGACUGUGGCUAGACUGCC [C10U G17U G30A], the self-cleavage amounted to 0.2.

Turning to GGCAGAGCUUAACACAGCGUGGCAAAGUGGGGGUGGCUAGACUGCC [C10U C31G U32G], the self-cleavage came to 0.04.

With GGCAGAGCUUAACACAGCGUGGCAAAGUGGCUCUGGUUAGACUGCC [C10U G33C C37U], the self-cleavage turned out to be 0.04.

With GGCAGAGCUUAACACAGCGUGCAAAAGUGGCUGUGGCUAGACUGCC [C10U G22C C23A], the self-cleavage came out at 0.18.

With GGCAGAGCUUAACACAGCGUGGCAAAGUGGCUAUGGCUAGACUGAC [C10U G33A C45A], the self-cleavage is 0.07.

With GGCAGAGCUUAACACAGCGUUGCAAAGUGGUUGUAGCUACACUGCC [C10U G21U C31U G35A G40C], the self-cleavage was 0.01.

Source of the values: the RNAGym collection of RNA variant scans (doi:10.7554/elife.90254).
